The list shows a part of the results. The full chains were built here from the parent and the listed change. Values near 0.05 are background.
B1: TEV protease; numbered along this chain (parent)
chain: MGESLFKGPRDYNPISSSICHLTNESDGHTTSLYGIGFGPFIITNKHLFRRNNGTLVVQSLHGVFKVKDTTTLQQHLVDGRDMIIIRMPKDFPPFPQKLKFREPQREERICLVTTNFQTKSMSSMVSDTSCTFPSGDGIFWKHWIQTKDGQCGSPLVSTRDGFIVGIHSASNFTNTNNYFTSVPKNFMELLTNQEAQQWVSGWRLNADSVLWGGHKVFMVKPEEPFQPVKEATQL

Variants of: B1
Experiment: raw area under fraction-flipped curve 0-4 h after induction (AUC4h, not background-subtracted), DNA-recorder readout of cleavage of the substrate (dimensionless); higher = more cleavage of the substrate by the protease variant
Conditions: temperature: 34 °C; time window: 0-4 h after rhamnose induction
Description: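 In vivo DNA recorder in E. coli TOP10(DE3) ΔrhaA at 34 °C. Each TEVp single-site mutant (parent TEVp 0) is paired with a single-site variant of the 7-mer TEVs (canonical ENLYFQ|S). The substrate sits between flexible linkers in a Bxb1-sfGFP-TEVs-SsrA fusion, so cleavage stabilises Bxb1 and speeds flipping of a recombination array, read by NGS. The value is the raw area under the fraction-flipped curve over 0-4 h after rhamnose induction (AUC4h), with ≥20 reads per time point. It is not background-subtracted; inactive controls average about 0.047.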
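Also: Bxb1 expression induced with 0.2% (w/v) L-rhamnose at OD600 near 0.5, cultures sampled hourly, flipped fraction per protease–substrate barcode pair counted by paired-end Illumina sequencing.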

Variant | area with substrate ENLAFQS | area with substrate ENLCFQS | area with substrate ENLDFQS | area with substrate ENLFFQS | area with substrate ENLHFQS | area with substrate ENLIFQS | area with substrate ENLKFQS | area with substrate ENLLFQS | area with substrate ENLNFQS | area with substrate ENLSFQS | area with substrate ENLVFQS | area with substrate ENLWFQS | area with substrate ENLEFQS | area with substrate ENLPFQS | area with substrate ENLQFQS | area with substrate ENLGFQS | area with substrate ENLMFQS | area with substrate ENLRFQS | area with substrate ENLTFQS
P134I | 0.0579 | 0.0801 | 0.0432 | 0.0632 | 0.0395 | 0.0602 | 0.0613 | 0.0538 | 0.0672 | 0.0572 | 0.0432 | 0.0608 |  |  |  |  |  |  | 
P134S | 0.0677 | 0.0534 |  |  | 0.0796 |  | 0.0667 |  |  | 0.0668 |  | 0.0317 | 0.0578 | 0.0555 | 0.0635 |  |  |  | 
S121R | 0.0617 | 0.0986 | 0.0672 | 0.0739 |  |  | 0.0812 | 0.0734 | 0.0665 |  | 0.108 | 0.0585 | 0.0634 | 0.064 |  | 0.0676 | 0.0858 | 0.0762 | 
S127F | 0.0652 | 0.0825 | 0.049 | 0.14 | 0.0803 | 0.0834 | 0.0925 |  | 0.0728 | 0.0655 | 0.102 | 0.101 | 0.081 | 0.0674 | 0.0745 |  |  |  | 
S127V | 0.0645 | 0.0661 | 0.0686 | 0.084 | 0.0699 |  | 0.0789 |  | 0.0698 | 0.0589 | 0.0873 | 0.0562 | 0.0743 | 0.0508 |  | 0.0673 | 0.0878 | 0.0721 | 
G136S | 0.0387 |  |  | 0.066 | 0.0631 |  |  |  | 0.0592 | 0.0512 | 0.0544 | 0.0568 |  | 0.0604 |  |  |  |  | 
N116R | 0.069 | 0.0609 | 0.068 |  |  | 0.084 | 0.0836 |  | 0.0743 | 0.0544 |  |  | 0.0634 | 0.0347 |  |  |  |  | 
N116M | 0.0597 | 0.0817 | 0.0786 |  | 0.0732 | 0.116 |  |  | 0.0841 |  |  |  |  |  |  |  |  |  | 
D128P | 0.0586 |  |  | 0.0979 | 0.074 |  |  |  | 0.0546 | 0.0772 | 0.115 | 0.0838 |  | 0.0434 |  |  |  |  | 0.0684
T129S | 0.0533 | 0.089 | 0.069 | 0.083 | 0.0668 | 0.0932 | 0.0803 | 0.075 | 0.0443 | 0.0653 |  | 0.0674 | 0.061 | 0.062 | 0.0663 |  | 0.0743 | 0.0705 | 
T129M | 0.0659 |  | 0.0715 |  |  | 0.1 | 0.0743 |  | 0.0612 | 0.0724 |  |  | 0.0647 |  |  |  | 0.0499 | 0.0505 | 0.098
I110C | 0.0715 | 0.0777 | 0.0497 | 0.097 | 0.074 |  | 0.0742 |  | 0.0452 | 0.0623 |  | 0.068 | 0.0529 | 0.0382 | 0.0551 | 0.062 | 0.0741 | 0.0761 | 0.0585
L112P | 0.0439 | 0.0543 | 0.0536 | 0.0833 | 0.0599 | 0.032 | 0.0602 | 0.052 | 0.0599 | 0.0585 | 0.0501 |  | 0.0547 | 0.0561 | 0.0561 | 0.0599 | 0.0632 | 0.0546 | 
C111F | 0.0483 | 0.0717 |  | 0.0933 | 0.087 | 0.0516 | 0.0152 | 0.0753 | 0.0171 | 0.0435 | 0 | 0.0761 | 0.0653 | 0.0502 | 0.0936 | 0.0811 |  | 0.084 | 
C111V | 0.0467 | 0.0996 | 0.0552 | 0.0674 | 0.0689 |  |  |  | 0.0448 | 0.0596 | 0.0856 |  |  | 0.051 |  |  |  | 0.069 | 
C111R | 0.0596 |  | 0.0524 | 0.0735 | 0.0892 | 0.101 | 0.0739 |  |  | 0.063 | 0.0862 |  | 0.0782 |  |  |  |  | 0.0628 | 
T114C | 0.0526 | 0.0655 |  | 0.097 | 0.0891 |  | 0.0835 |  | 0.0672 |  | 0.0931 |  |  |  | 0.0687 |  |  |  | 
T132H | 0.0573 | 0.0617 |  |  |  | 0.0609 | 0.0557 | 0.0644 | 0.0318 |  |  | 0.0654 | 0.0829 | 0.0915 | 0.0642 |  |  |  | 
T132P | 0.0612 | 0.0688 | 0.0577 | 0.096 | 0.0622 | 0.058 | 0.0813 | 0.056 | 0.0675 | 0.06 | 0.0491 | 0.0568 | 0.0612 |  |  | 0.0549 | 0.0582 |  | 
G138D | 0.0444 |  | 0.061 | 0.0713 | 0.0622 |  | 0.0656 |  | 0.0657 |  |  |  |  |  | 0.047 |  |  | 0.0526 | 
G138C | 0.0737 |  | 0.0622 | 0.0884 | 0.0689 |  |  |  |  |  |  |  |  |  | 0.0553 | 0.07 |  |  | 
T115D | 0.061 |  | 0.0522 | 0.0591 | 0.0657 |  | 0.0735 | 0.074 | 0.102 |  |  | 0.0539 |  |  |  | 0.0653 |  | 0.0731 | 
T115S | 0.0732 | 0.0852 | 0.0549 | 0.0721 | 0.0978 | 0.0451 | 0.0878 | 0.0559 | 0.0715 | 0.0719 |  | 0.0891 | 0.0445 | 0.053 | 0.0584 |  |  | 0.0771 | 
I139E | 0.0562 |  | 0.0501 |  | 0.0431 | 0.0766 | 0.0659 |  |  | 0.0679 |  |  | 0.0621 | 0.0508 |  |  |  |  | 
I139D | 0.0775 | 0.0617 | 0.0677 | 0.0952 | 0.0615 | 0.0649 | 0.0742 | 0.068 | 0.0689 | 0.0678 |  | 0.0543 | 0.0489 |  | 0.0726 | 0.0717 |  | 0.0576 | 
M122C | 0.0615 | 0.0803 | 0.0396 | 0.0947 | 0.08 | 0.0869 | 0.0744 |  | 0.0669 | 0.0715 |  | 0.0564 | 0.0528 | 0.0588 | 0.0671 |  | 0.0856 | 0.0866 | 0.0751
F117D | 0.0618 | 0.0681 |  | 0.0926 | 0.0705 |  | 0.0846 |  |  |  |  |  | 0.0767 | 0.0642 |  |  | 0.0834 |  | 
K120R | 0.0655 | 0.0784 | 0.065 | 0.088 | 0.0627 |  | 0.0799 |  | 0.07 | 0.0613 | 0.0396 | 0.0941 | 0.0595 | 0.0957 | 0.0885 | 0.0698 | 0.0532 |  | 0.0568
S123F | 0.0695 |  | 0.0546 | 0.096 | 0.0578 |  | 0.0823 | 0.0592 | 0.0501 | 0.0659 |  | 0.0796 | 0.071 | 0.0522 | 0.0717 |  |  | 0.0738 | 

— the supplement of paper PMC12217912
